Data taken from the supplement of paper PMC8728848.
The other results are listed elsewhere or left out.

Key:
Assay in all cases: glycan array binding signal (z-score within array); higher = stronger binding
Conditions in all cases: glycan notation: IUPAC condensed, linker removed
[1] = target: Neu5Ac(a2-3)Gal(b1-3)GalNAc(b1-3)Gal(a1-4)Gal(b1-4)Glc
Outline: (§1)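 The binding signal is a Z-score computed within each array. Data were drawn from 3228 arrays in the Consortium for Functional Glycomics database, restricted to those with a known protein sequence. Scores were averaged over arrays of the same protein sequence at different concentrations or buffers, and over linkers, and negative values can be taken as non-binding.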

[2] = target: Neu5Ac(a2-3)Gal(b1-3)GalNAc(b1-4)[Neu5Ac(a2-3)]Gal(b1-4)Glc
Outline: as §1

[3] = target: Neu5Ac(a2-3)Gal(b1-3)GalNAc6S
Outline: as §1

[4] = target: Neu5Ac(a2-3)Gal(b1-3)GlcNAc
Outline: as §1

[5] = target: Neu5Ac(a2-3)Gal(b1-3)GlcNAc(b1-3)Gal(b1-4)GlcNAc
Outline: as §1

[6] = target: Neu5Ac(a2-3)Gal(b1-3)GlcNAc6S
Outline: as §1

[7] = target: Neu5Ac(a2-3)Gal(b1-3)[Fuc(a1-4)]GlcNAc
Outline: as §1

[8] = target: Neu5Ac(a2-3)Gal(b1-3)[Fuc(a1-4)]GlcNAc(b1-3)Gal(b1-4)[Fuc(a1-3)]GlcNAc
Outline: as §1

[9] = target: Neu5Ac(a2-3)Gal(b1-3)[Neu5Ac(a2-3)Gal(b1-4)]GlcNAc
Outline: as §1

[10] = target: Neu5Ac(a2-3)Gal(b1-3)[Neu5Ac(a2-6)]GalNAc
Outline: as §1

Neu5Ac(a2-3)Gal(b1-4)Glc = target: Neu5Ac(a2-3)Gal(b1-4)Glc
Outline: as §1

[11] = target: Neu5Ac(a2-3)Gal(b1-4)GlcNAc
Outline: as §1

[12] = target: Neu5Ac(a2-3)Gal(b1-4)GlcNAc(b1-3)Gal(b1-4)GlcNAc
Outline: as §1

[13] = target: Neu5Ac(a2-3)Gal(b1-4)GlcNAc(b1-3)Gal(b1-4)GlcNAc(b1-3)Gal(b1-4)GlcNAc
Outline: as §1

[14] = target: Neu5Ac(a2-3)Gal(b1-4)GlcNAc(b1-3)Gal(b1-4)[Fuc(a1-3)]GlcNAc
Outline: as §1

[15] = target: Neu5Ac(a2-3)Gal(b1-4)GlcNAc6S
Outline: as §1

[16] = target: Neu5Ac(a2-3)Gal(b1-4)[Fuc(a1-3)]GlcNAc
Outline: as §1

[17] = target: Neu5Ac(a2-3)Gal(b1-4)[Fuc(a1-3)]GlcNAc(b1-3)Gal
Outline: as §1

[18] = target: Neu5Ac(a2-3)Gal(b1-4)[Fuc(a1-3)]GlcNAc(b1-3)Gal(b1-4)GlcNAc
Outline: as §1

[19] = target: Neu5Ac(a2-3)Gal(b1-4)[Fuc(a1-3)]GlcNAc(b1-3)Gal(b1-4)[Fuc(a1-3)]GlcNAc(b1-3)Gal(b1-4)[Fuc(a1-3)]GlcNAc
Outline: as §1

[20] = target: Neu5Ac(a2-3)Gal(b1-4)[Fuc(a1-3)]GlcNAc6S
Outline: as §1

[21] = target: Neu5Ac(a2-3)Gal6S(b1-4)GlcNAc
Outline: as §1

[22] = target: Neu5Ac(a2-3)Gal6S(b1-4)[Fuc(a1-3)]GlcNAc
Outline: as §1

Neu5Ac(a2-3)GalNAc = target: Neu5Ac(a2-3)GalNAc
Outline: as §1

[23] = target: Neu5Ac(a2-3)GalNAc(b1-4)GlcNAc
Outline: as §1

[24] = target: Neu5Ac(a2-3)[GalNAc(b1-4)]Gal(b1-4)Glc
Outline: as §1

[25] = target: Neu5Ac(a2-3)[GalNAc(b1-4)]Gal(b1-4)GlcNAc
Outline: as §1

[26] = target: Neu5Ac(a2-3)[Neu5Ac(a2-6)]GalNAc
Outline: as §1

[27] = target: Neu5Ac(a2-6)Gal(b1-4)GlcNAc
Outline: as §1

[28] = target: Neu5Ac(a2-6)Gal(b1-4)GlcNAc(b1-2)Man(a1-3)[Neu5Ac(a2-6)Gal(b1-4)GlcNAc(b1-2)Man(a1-6)]Man(b1-4)GlcNAc(b1-4)GlcNAc
Outline: as §1

[29] = target: Neu5Ac(a2-6)Gal(b1-4)GlcNAc(b1-3)Gal(b1-4)GlcNAc
Outline: as §1

[30] = target: Neu5Ac(a2-6)Gal(b1-4)GlcNAc(b1-3)Gal(b1-4)[Fuc(a1-3)]GlcNAc(b1-3)Gal(b1-4)[Fuc(a1-3)]GlcNAc
Outline: as §1

[31] = target: Neu5Ac(a2-6)Gal(b1-4)GlcNAc6S
Outline: as §1

Neu5Ac(a2-6)GalNAc = target: Neu5Ac(a2-6)GalNAc
Outline: as §1

[32] = target: Neu5Ac(a2-6)GalNAc(b1-4)GlcNAc
Outline: as §1

Neu5Ac(a2-8)Neu5Ac = target: Neu5Ac(a2-8)Neu5Ac
Outline: as §1

[33] = target: Neu5Ac(a2-8)Neu5Ac(a2-3)Gal(b1-4)Glc
Outline: as §1

[34] = target: Neu5Ac(a2-8)Neu5Ac(a2-3)[GalNAc(b1-4)]Gal(b1-4)Glc
Outline: as §1

[35] = target: Neu5Ac(a2-8)Neu5Ac(a2-8)Neu5Ac
Outline: as §1

[36] = target: Neu5Ac(a2-8)Neu5Ac(a2-8)Neu5Ac(a2-3)Gal(b1-4)Glc
Outline: as §1

[37] = target: Neu5Ac(a2-8)Neu5Ac(a2-8)Neu5Ac(a2-3)[GalNAc(b1-4)]Gal(b1-4)Glc
Outline: as §1

[38] = target: Neu5Ac(a2-8)Neu5Ac(a2-8)Neu5Ac(a2-8)Neu5Ac(a2-3)[GalNAc(b1-4)]Gal(b1-4)Glc
Outline: as §1

[39] = target: Neu5Ac9Ac(a2-6)Gal(b1-4)GlcNAc
Outline: as §1

[40] = target: Neu5Gc(a2-3)Gal(b1-3)GlcNAc
Outline: as §1

[41] = target: Neu5Gc(a2-3)Gal(b1-3)[Fuc(a1-4)]GlcNAc
Outline: as §1

Neu5Gc(a2-3)Gal(b1-4)Glc = target: Neu5Gc(a2-3)Gal(b1-4)Glc
Outline: as §1

[42] = target: Neu5Gc(a2-3)Gal(b1-4)GlcNAc
Outline: as §1

[43] = target: Neu5Gc(a2-3)Gal(b1-4)[Fuc(a1-4)]GlcNAc
Outline: as §1

[44] = target: Neu5Gc(a2-6)Gal(b1-4)GlcNAc
Outline: as §1

Neu5Gc(a2-6)GalNAc = target: Neu5Gc(a2-6)GalNAc
Outline: as §1

B1: Tulipa lectin C-1 (Tulipa hybrid) (protein)
chain: MGMALVVALAVALASTVAGQQNVLLSGNTLANEESLSYGSVKFIMQNDCNLVLYGGGFQSNTASNGKKCTLTLNNNGHLIINDGLTGRVVWRNSNAQNPVGRYAAVLRPAPGTADVAIYGPAIWSTNDEFSYQESGVVPHKLGRETPNLPRMQNLLFSGQTLYGTDGMLSSNDGSTTFELSKCQLSLSLGNEVKWKVAPTVENGKENYCHVRLDHRGHLSLLNDDNVVLFRSIPTNGVEPPIGDYVLIVEKGAGYIYGPPIWNTYDNRRYKVASA
[1]
  glycan array binding signal (z-score): -0.212
[2]
  glycan array binding signal (z-score): -0.197
[3]
  glycan array binding signal (z-score): -0.218
[4]
  glycan array binding signal (z-score): -0.208
[5]
  glycan array binding signal (z-score): -0.235
[6]
  glycan array binding signal (z-score): -0.209
[7]
  glycan array binding signal (z-score): -0.116
[8]
  glycan array binding signal (z-score): -0.142
[9]
  glycan array binding signal (z-score): -0.242
[10]
  glycan array binding signal (z-score): -0.211
Neu5Ac(a2-3)Gal(b1-4)Glc
  glycan array binding signal (z-score): -0.223
[11]
  glycan array binding signal (z-score): -0.219
[12]
  glycan array binding signal (z-score): -0.216
[13]
  glycan array binding signal (z-score): -0.214
[14]
  glycan array binding signal (z-score): -0.239
[15]
  glycan array binding signal (z-score): -0.227
[16]
  glycan array binding signal (z-score): -0.225
[17]
  glycan array binding signal (z-score): -0.244
[18]
  glycan array binding signal (z-score): -0.171
[19]
  glycan array binding signal (z-score): -0.207
[20]
  glycan array binding signal (z-score): -0.228
[21]
  glycan array binding signal (z-score): -0.195
[22]
  glycan array binding signal (z-score): -0.156
Neu5Ac(a2-3)GalNAc
  glycan array binding signal (z-score): -0.234
[23]
  glycan array binding signal (z-score): -0.163
[24]
  glycan array binding signal (z-score): -0.117
[25]
  glycan array binding signal (z-score): -0.212
[26]
  glycan array binding signal (z-score): -0.237
[27]
  glycan array binding signal (z-score): -0.169
[28]
  glycan array binding signal (z-score): 5.26
[29]
  glycan array binding signal (z-score): -0.066
[30]
  glycan array binding signal (z-score): -0.093
[31]
  glycan array binding signal (z-score): -0.091
Neu5Ac(a2-6)GalNAc
  glycan array binding signal (z-score): -0.226
[32]
  glycan array binding signal (z-score): -0.003
Neu5Ac(a2-8)Neu5Ac
  glycan array binding signal (z-score): -0.238
[33]
  glycan array binding signal (z-score): -0.233
[34]
  glycan array binding signal (z-score): -0.232
[35]
  glycan array binding signal (z-score): -0.224
[36]
  glycan array binding signal (z-score): -0.212
[37]
  glycan array binding signal (z-score): -0.234
[38]
  glycan array binding signal (z-score): -0.235
[39]
  glycan array binding signal (z-score): -0.081
[40]
  glycan array binding signal (z-score): -0.218
[41]
  glycan array binding signal (z-score): -0.209
Neu5Gc(a2-3)Gal(b1-4)Glc
  glycan array binding signal (z-score): -0.214
[42]
  glycan array binding signal (z-score): -0.243
[43]
  glycan array binding signal (z-score): -0.23
[44]
  glycan array binding signal (z-score): -0.145
Neu5Gc(a2-6)GalNAc
  glycan array binding signal (z-score): -0.204
